# Results: the supplement of paper PMC3724861
# This is one part of the list.
# Test system: T1, Caupolican (Caup) homeodomain DNA-binding domain
# T1 sequence: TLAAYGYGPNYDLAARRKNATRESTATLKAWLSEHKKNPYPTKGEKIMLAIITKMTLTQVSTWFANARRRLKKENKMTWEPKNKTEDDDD
# Assay: PBM E-score (8-mer, recovered from the published 9-mer minima) (E-score (dimensionless, -0.5 to 0.5)); Drosophila protein; higher = stronger relative binding preference, active = 0.31 or more
# How it was run: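 Caup's homeodomain DNA-binding domain (residues 214-303) was produced by in vitro transcription and translation and applied at 100 nM to custom-designed protein binding microarrays. Each value is an enrichment score giving relative binding preference for a short DNA word; higher means stronger. Published 9-mer scores were the minimum of their two constituent 8-mer scores, and the 8-mer values were recovered from those minima. A cutoff of 0.31 marks candidate binding sequences.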
row,Sequence,PBM E-score
1,GGTGTAAA,inactive: 0.24
2,CTTACTTA,inactive: 0.0364
3,CACGTTAC,inactive: 0.117
4,CTGTAGGC,inactive: -0.00926
5,TCTCATCA,inactive: 0.0438
6,ATTAATCG,inactive: 0.0904
7,GTGGGGCA,inactive: -0.247
8,ATCACTTA,inactive: 0.0712
9,GGCTCTGA,inactive: -0.0698
10,ATTATCCA,≥ 0.149
11,CTGTGTTA,inactive: 0.259
12,GGTTTCTA,inactive: -0.0224
13,CCGGCCAA,inactive: -0.219
14,GTCGTTCA,inactive: 0.0698
15,GATTTAAC,inactive: 0.0609
16,CTACGGCA,inactive: -0.0814
17,ACGATACT,inactive: 0.09
18,ATGCGTAG,inactive: 0.0201
19,AATGCCAG,inactive: -0.111
20,CCTGCATC,inactive: -0.0792
21,ATTATAGC,inactive: -0.0256
22,ATGCCACC,inactive: -0.161
23,CGGCGAGA,inactive: -0.133
24,CTACATAC,inactive: 0.286
25,AGTACGAA,inactive: 0.0992

row,Sequence,PBM E-score
1,TAGTCGAA,inactive: 0.114
2,GCTGGCGA,inactive: -0.156
3,CGGAGCAG,inactive: -0.196
4,ATGCCTCA,inactive: -0.045
5,CAGTGGAC,inactive: -0.0371
6,CAACAACA,active: 0.408
7,GTAGTAGA,inactive: 0.0981
8,CGCCAGCA,inactive: -0.18
9,TATATGCA,inactive: 0.141
10,TCAGATAA,inactive: 0.0965
11,CGAAGAGA,inactive: -0.135
12,AGGCATCA,inactive: -0.0707
13,CCGCACCC,inactive: -0.234
14,CGCCGACC,inactive: -0.2
15,ACGCCCAG,inactive: -0.163
16,GGCGGGCA,inactive: -0.243
17,ACGGACCT,inactive: -0.0478
18,AGGAAGCG,inactive: -0.0958
19,AGATCGCA,inactive: 0.0132
20,AACAGTCC,inactive: -0.0302
21,GGGGTAAA,inactive: -0.0802
22,AGTAGGAG,inactive: -0.0818
23,AGAAGGTG,inactive: 0.0532
24,GGGACTGA,inactive: -0.121
25,CTGGATGA,inactive: -0.0479

row,Sequence,PBM E-score
1,CCGCTAGA,inactive: -0.16
2,AGAAAGCT,inactive: -0.0149
3,GACATACC,inactive: 0.169
4,ATACACTG,inactive: 0.183
5,GCTGGGAC,inactive: -0.121
6,ACACTCGG,inactive: 0.00511
7,AATCACTG,inactive: 0.0918
8,GTATGAAC,inactive: 0.154
9,AATCTTTC,inactive: -0.0773
10,GCACCCTA,inactive: -0.0601
11,AATCCGTA,inactive: 0.0362
12,CGGTGCGC,inactive: -0.232
13,CACTGCTC,inactive: -0.0549
14,GGTTATAC,inactive: 0.0489
15,CACGTCTA,inactive: 0.106
16,CGCACGAG,inactive: -0.139
17,CTATACAG,inactive: 0.0968
18,AGTTCTTA,inactive: 0.0818
19,ATATACCC,inactive: 0.125
20,ATGAGAAT,inactive: 0.0775
21,CGCGAGCG,inactive: -0.225
22,AAGACACT,inactive: 0.0837
23,AGGTCTGG,inactive: -0.0688
24,GTAACTGA,inactive: 0.0782
25,CGAGCATA,inactive: -0.0162

row,Sequence,PBM E-score
1,CAAGGCTC,inactive: -0.132
2,CCCGTCCC,inactive: -0.238
3,GGATGCAA,inactive: 0.0225
4,CGAAAAAC,inactive: 0.00524
5,GTTGTGGA,inactive: 0.047
6,AAGTGCCA,≥ 0.0678
7,AAACATAT,active: 0.325
8,CAGCGTAA,inactive: 0.0554
9,CCACAGTC,inactive: -0.0613
10,CGATCGTC,inactive: -0.0814
11,TCAACCGA,inactive: -0.0397
12,CAGTATGG,inactive: -0.061
13,AAACTGGA,inactive: 0.0284
14,CATTACAA,inactive: 0.288
15,ATAGGGGC,inactive: -0.172
16,CACCAGTA,inactive: 0.0717
17,GCAGTGGC,inactive: -0.277
18,AGAGACGA,inactive: -0.0329
19,CCGTGAGC,inactive: -0.127
20,ACCGTTCC,inactive: -0.109
21,AATTATGT,inactive: 0.308
22,AAACGTCG,inactive: -0.0455
23,ACTACGCG,inactive: -0.0102
24,AGACCACA,inactive: -0.0303
25,CCGAATCG,inactive: -0.108

row,Sequence,PBM E-score
1,AGAAGAGC,inactive: -0.0801
2,GAACTGGC,inactive: -0.227
3,CTCCACTA,inactive: -0.0453
4,AATCGCGT,inactive: 0.0224
5,ATCAGTTC,inactive: -0.00132
6,AGATCCAG,inactive: -0.031
7,GAGAGCTC,inactive: -0.215
8,CATTCGCA,inactive: 0.0559
9,GAATGTGA,inactive: 0.0309
10,TCACCTAA,inactive: 0.0557
11,AATCGGTA,≥ 0.149
12,AGTTGGAA,inactive: -0.00767
13,CTCAAAGC,inactive: -0.174
14,AAGGCCCT,inactive: -0.124
15,CCCACCAA,inactive: -0.152
16,ATTAATAG,inactive: 0.129
17,AGTCGCAA,inactive: 0.0168
18,CTGGCTGA,inactive: -0.166
19,GTGTAGTA,active: 0.357
20,AACGTCGT,inactive: -0.0343
21,AGGGTCAT,inactive: -0.0271
22,AGCGTACG,inactive: -0.0814
23,GGGCCCCC,inactive: -0.37
24,TGAGCGAA,inactive: -0.0448
25,AACCCCGA,inactive: -0.102

row,Sequence,PBM E-score
1,CTAGAACA,inactive: 0.222
2,CCGTAAGA,inactive: -0.0394
3,ACCTTAGC,inactive: 0.00415
4,CTAGGGAG,inactive: -0.217
5,TGGTCCAA,inactive: -0.0751
6,ACACGATA,active: 0.322
7,GAAAGCAA,inactive: 0.0589
8,AGGTAGGA,inactive: -0.0302
9,GACCTAAA,inactive: -0.0048
10,AGTGAGTA,inactive: 0.11
11,ACGCCGCC,inactive: -0.235
12,GTCGAGTA,inactive: 0.114
13,AACGCGAA,inactive: 0.0338
14,GTTAGACA,inactive: 0.269
15,CGTGTGTA,inactive: 0.283
16,AATCCGGA,inactive: 0.0501
17,AATGCGTG,inactive: 0.0934
18,CGCCTCAA,inactive: -0.163
19,CACTTTTA,inactive: 0.0205
20,TACTAATA,inactive: 0.195
21,GGCATGAC,inactive: -0.077
22,ATAACTAT,inactive: 0.175
23,CTCATCTC,inactive: -0.158
24,GCGCGCAC,inactive: -0.11
25,CGGTGACG,inactive: -0.0368

row,Sequence,PBM E-score
1,CCTTAGCG,inactive: -0.179
2,GCCCAGAA,inactive: -0.132
3,CCAGCGGC,inactive: -0.182
4,CTAGTAGC,inactive: 0.00748
5,ACTCATAC,inactive: 0.102
6,CTTAGACA,inactive: 0.0709
7,CCAACACA,inactive: 0.17
8,TATTTGAA,inactive: 0.0785
9,ATTGAAGC,inactive: 0.0795
10,AATCGCAT,inactive: 0.14
11,AAGGTCTA,inactive: -0.112
12,ACTACGAG,inactive: 0.051
13,CCGCTGAA,inactive: -0.0918
14,CCTGCTCA,inactive: 0.0153
15,AAGTAACA,inactive: 0.306
16,AAAAAGGT,≥ 0.0466
17,GCCTTGAC,inactive: -0.166
18,AAAGACTG,inactive: -0.0766
19,GTCGTGCA,inactive: 0.137
20,AAGCCTTA,inactive: -0.145
21,AGGGTAGG,inactive: -0.0919
22,AGTGGTTA,inactive: 0.151
23,CCATACGC,inactive: -0.0602
24,ACTTGGTA,inactive: 0.117
25,ATACAGTG,inactive: 0.152

row,Sequence,PBM E-score
1,GGGGTACC,inactive: -0.194
2,CTGGGGAC,inactive: -0.201
3,AGTTATTC,inactive: 0.135
4,GGGCTTAA,inactive: -0.171
5,TAGTAGAA,inactive: 0.0196
6,ATTGTAGA,inactive: 0.214
7,GCGGCGAA,inactive: -0.133
8,ACGATCAA,inactive: 0.145
9,GCTGACCC,inactive: -0.159
10,GAGATCGA,inactive: 0.0226
11,CAACTGGC,inactive: -0.0785
12,CCTCCACC,inactive: -0.213
13,ACTTTACT,inactive: 0.00848
14,ACGGAGCA,≥ -0.0071
15,TCTACTAA,inactive: 0.062
16,CAATACCA,inactive: 0.153
17,GGTAGAGA,inactive: -0.0903
18,AAATCGCG,inactive: -0.00018
19,TCCATCGA,inactive: -0.0338
20,TGCGCGAA,inactive: 0.0393
21,CGAGGACG,inactive: -0.159
22,GTACCAAA,inactive: 0.117
23,GGGTTGTA,inactive: 0.26
24,GATTCGAC,inactive: 0.104
25,ATGGATCC,inactive: 0.0296

row,Sequence,PBM E-score
1,TCGGAAGA,inactive: -0.0036
2,GTCCGGTA,inactive: 0.00302
3,ATTTACCG,inactive: 0.0622
4,CGTATTTC,inactive: 0.0429
5,GGCTCTTA,inactive: -0.0548
6,CATATGCG,inactive: 0.088
7,AACCTCAA,inactive: 0.0625
8,AGAAGCGA,≥ -0.0139
9,CAATCAGA,inactive: 0.0415
10,CACACTGG,inactive: -0.0163
11,ACAGTCAG,inactive: -0.0033
12,CACCAACC,inactive: -0.0462
13,ACAATTAA,inactive: 0.152
14,CGTGTCGC,inactive: 0.265
15,AAGAGCAC,inactive: 0.0428
16,CCACGCGA,inactive: -0.113
17,GAGCCATA,inactive: -0.0461
18,AAACCATA,≥ 0.126
19,CCAAGGGG,inactive: -0.222
20,GATAGTGA,inactive: 0.039
21,CTCGCTAC,inactive: -0.0641
22,GAGCTAGC,inactive: -0.0595
23,AAGATGAG,inactive: -0.0391
